# Data as given in PubChem BioAssay AID1465 (SRMLSC, 2008).
# Hit rate of the full screen: of about 220,000 compounds, about 160 (0.073%) were called active. This list was built around the results that the source calls inconclusive (neither active nor inactive); the mix of calls is not that of the screen.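 Rule for the calls: active = fold induction of absorbance versus untreated yeast above a set limit, then at least 30% activation at any dose in follow-up; inconclusive = repeats straddling the limit, or above it without dose testing; inactive = fold induction below the set limit.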
# Assay: enhancers of respiration in Yfh1-depleted yeast, dose response, Friedreich's ataxia, plus single-dose screen (AID 1465)
# Conditions: S. cerevisiae Yfh1-off respiration, WST-1 reduction, 72 h; at 50 µM; hits give high values
row,SMILES,fold induction
1,COC(=O)C(=NNc1c(C)n(C)n(-c2ccccc2)c1=O)C(=O)OC,inactive: 1
2,Cc1c(NC=C(C#N)C#N)c(=O)n(-c2ccccc2)n1C,inactive: 0.95
3,N#C/C(=C\c1cc([N+](=O)[O-])c(N2CCOCC2)cc1N1CCOCC1)c1nc2ccccc2[nH]1,inconclusive: 1.3
4,O=CN/C=C/c1cc(O)ccc1O,inconclusive: 1.45
5,Cc1[nH]nc(SCC(=O)NC2CCCC2)c1[N+](=O)[O-],inactive: 1.05
6,CC(C)(C=O)C1=CC(=O)c2ccccc2C1=O,inactive: 1.3
7,Cc1noc(C)c1CSc1ccc(Br)cc1,inactive: 0.89
8,CCc1nnc(NC(=O)CCC(=O)N2CCN(CCOc3ccc(C)cc3)CC2)s1,inactive: 0.907
9,C=CCSc1nc(N)c(C(=O)Nc2ccccc2OC)cc1C(=O)Nc1ccccc1,inconclusive: 1.19
10,COc1ccc(-n2nnnc2S(=O)(=O)CC(=O)N2CCCCC2)cc1,inconclusive: 1.41
11,O=[N+]([O-])c1ccc(Sc2cccc3cccnc23)c2cccnc12,inactive: 1.02
12,CCN(CC)c1ccc2cc(C(N)=O)/c(=N\NC(=O)c3ccncc3)oc2c1,inconclusive: 2.42
13,Cc1ccc(N2CCN(C(=O)c3cccc([N+](=O)[O-])c3)CC2)cc1Cl,inactive: 0.82
14,COc1ccc(-n2c(SCC(=O)Nc3sc4c(c3C#N)CCCC4)nnc2-c2ccccc2OC)cc1,inconclusive: 1.13
15,O=C1C(Br)=Cc2cccc3cccc1c23,inconclusive: 1.88
16,O=C1NC(=O)/C(=C/c2ccc(N3CCOCC3)o2)N1,inactive: 1.01
17,CCC(C)NC(=O)c1ccc(C(=O)c2ccccc2)cc1 (stereo unspecified),inconclusive: 1.33
18,N#C/C(=N\Nc1ccc(Cl)cc1)C(=O)c1ccccc1,inactive: 0.82
19,Oc1ccccc1-c1nc2c3ccccc3c3ccccc3c2[nH]1,inconclusive: 1.62
20,Nc1ncnc(Oc2cccc(C(F)(F)F)c2)c1[N+](=O)[O-],inconclusive: 1.34
21,COc1ccc(-c2cc(CNC(=O)CCl)on2)cc1,inconclusive: 1.34
22,CCCCN1C(=O)C2C(c3ccc(OC)cc3O)NC(CC(C)C)(C(=O)O)C2C1=O (stereo unspecified),inactive: 0.99
23,CN1C(=O)C(O)(CC(=O)c2ccccn2)c2cc(Br)ccc21 (stereo unspecified),inconclusive: 1.32

row,SMILES,fold induction
1,N#C/C(=C\c1ccc(-c2cccc(Cl)c2)o1)C(=O)Nc1cccc2cccnc12,inconclusive: 1.13
2,CC(=O)Nc1ccc(Nc2nc(C)c([N+](=O)[O-])c(Nc3ccc(NC(C)=O)cc3)n2)cc1,inconclusive: 1.34
3,Cc1cccc(NC(=S)Nc2ccc(N3CCOCC3)cc2)c1C,inconclusive: 1.34
4,Cc1ccc(CNc2ccc(N3CCOCC3)cc2)s1,inconclusive: 1.34
5,O=C1C(Cl)=C(Nc2ccc3cn[nH]c3c2)C(=O)c2ccccc21,inconclusive: 2.67
6,COc1cc(CNc2ccc(N3CCCC3)cc2)ccc1OCc1ccccc1F,inconclusive: 1.38
7,O=C(O)Cn1cc(/C=C2/NC(=O)N(c3ccc(Cl)cc3)C2=O)c2ccccc21,inconclusive: 1.32
8,COc1cc(/C=C2\CC/C(=C\c3cc(OC)c(O)c(OC)c3)C2=O)cc(OC)c1O,inconclusive: 1.42
9,Cc1c(C(=O)Nc2ccc(S(N)(=O)=O)cc2)oc2ccc(Cl)cc12,inconclusive: 1.34
10,Cc1ccc(C(=O)Nc2cc(C(C)C)c(O)c(C(C)C)c2)cc1,inconclusive: 1.35
11,S=C(NCc1ccccc1)NCc1cccc(CNC(=S)NCc2ccccc2)c1,inconclusive: 1.42
12,COc1ccc(C2C(C(C)=O)=C(C)N=c3s/c(=C\c4cc(C)n(C)c4C)c(=O)n32)c(OC)c1 (stereo unspecified),inconclusive: 1.45
13,Cc1cc(C)c(C)c(S(=O)(=O)ON2C(=O)c3ccccc3C2=O)c1C,inconclusive: 1.33
14,Cc1ccc(NC(=S)NNc2ccc([N+](=O)[O-])cc2S(=O)(=O)Nc2ccccc2C(=O)O)cc1C,inactive: 1.09
15,Cc1csc(NC(=O)CSc2nnc(-c3ccccn3)n2-c2ccc(C)c(C)c2)n1,inconclusive: 1.18
16,COc1cc(C(=O)Oc2ccccc2/C=N/NC(=O)c2ccc(Cl)cc2Cl)cc(OC)c1OC,inconclusive: 1.23
17,CCOC(=O)c1[nH]c(CSc2nnnn2-c2ccccc2C)c(C(=O)OCC)c1C,inconclusive: 1.14
18,O=C(CSCc1ccc(Cl)cc1)Nc1cc([N+](=O)[O-])ccc1O,inconclusive: 1.33
19,Cc1cccc(N2CCN(c3ccc(NC(=O)/C=C\C(=O)O)cc3)CC2)c1,inconclusive: 1.33
20,CCOC(=O)c1c(C)oc(NC(=O)CCl)c1C(=O)OCC,inconclusive: 1.35
21,CCOC(=O)c1sc(-n2[nH]c(C)cc2=O)nc1C,inconclusive: 1.23
22,CCCC(=O)NC(c1ccco1)c1c(O)ccc2ccccc12 (stereo unspecified),inactive: 0.99
23,Cc1ccccc1C=Nc1ccccc1C(N)=O,inconclusive: 1.33

row,SMILES,fold induction
1,Cc1ccc(NC(=S)NCc2ccc3c(c2)OCO3)c(C)c1,inconclusive: 1.31
2,O=[N+]([O-])c1cc(Cl)c2cccnc2c1O,inactive: 0.89
3,O=C(O)C1Nc2c(O)cc(Cl)c([N+](=O)[O-])c2C2C=CCC12 (stereo unspecified),inconclusive: 1.7
4,Cc1ccc2c3c(cccc13)-c1ccccc1C2=O,inactive: 0.91
5,Cc1[nH][nH]c(=O)c1C(c1ccc(-c2ccc(C(=O)O)cc2)o1)c1c(C)[nH][nH]c1=O,inconclusive: 1.34
6,COc1ccc(N=C2C(=O)Nc3c(C)cccc32)cc1,inconclusive: 1.33
7,CCCCOc1ccc(N=Nc2ccc(N)nc2N)cn1,inconclusive: 1.41
8,O=[N+]([O-])c1ccc(N2CCCC2)cc1N1CCCC1,inconclusive: 1.46
9,Cc1ccc(-c2nnn(CC(=O)N(Cc3cccs3)C(C(=O)NC3CCCCC3)c3ccco3)n2)o1 (stereo unspecified),inconclusive: 1.03
10,COC(=O)C1=C(N)Oc2cc(N(C)C)ccc2C1c1ccccc1OC (stereo unspecified),inconclusive: 1.5
11,COc1ccc(/C=C/C(=O)NCCCc2ccccc2)cc1,inconclusive: 1.35
12,CCCOc1ccc(C(=O)NNC(=S)NC(=O)c2cc(-c3ccccc3)nc3ccccc23)cc1,inconclusive: 1.28
13,CCCCC(=O)NC(c1ccco1)c1cc(Cl)c2cccnc2c1O (stereo unspecified),inactive: 0.91
14,CC(C)C(=O)Nc1cccc(NC(=O)c2cccc([N+](=O)[O-])c2)c1,inactive: 0.95
15,CCOc1cc(/C=C2\NC(=S)N(c3c(C)n(C)n(-c4ccccc4)c3=O)C2=O)ccc1O,inconclusive: 1.34
16,O=c1cc(-c2ccc(F)cc2)[nH][nH]1,inconclusive: 1.34
17,COc1cc(-c2nnc(COc3ccc(Cl)cc3C)o2)cc(OC)c1OC,inconclusive: 1.06
18,O=C(OCCOc1ccccc1)c1n[nH]c2ccccc12,inactive: 0.95
19,C[C@@H]1Cc2c(O)c(O)cc(O)c2C(=O)O1,inactive: 1.07
20,Cc1ccc(-c2nnn(CC(=O)N(Cc3ccco3)C(C(=O)NC3CCCC3)c3cccs3)n2)o1 (stereo unspecified),inconclusive: 1.19
21,O=C(Nc1cccc(NC(=O)N2CCN(c3ccccc3)CC2)c1)N1CCN(c2ccccc2)CC1,inconclusive: 1.17
22,O=C(NC(c1ccccc1)c1cc(Cl)c2cccnc2c1O)c1cccnc1 (stereo unspecified),inactive: 0.87
23,COC(=O)c1ccccc1NC(=O)Cn1ccnc1,inactive: 1.02

row,SMILES,fold induction
1,COc1cccc(-c2nc(-c3ccc4c(c3)-c3ccccc3S4(=O)=O)c(-c3ccccc3)[nH]2)c1OC,inconclusive: 1.24
2,CCC(=O)/C=C1/Sc2ccccc2N1CC,inactive: 0.79
3,Cc1ccccc1N1C(=O)c2cccc3c(N(C)CCO)ccc(c23)C1=O,inconclusive: 1.38
4,COc1ccc(Cn2c(C)c(C)c(C#N)c2NC(=O)Nc2ccc(F)cc2)cc1,inconclusive: 1.26
5,Cc1nc(SCC(=O)c2ccccc2)c([N+](=O)[O-])[nH]1,inconclusive: 1.34
6,CC(C)OP(=O)(OC(C)C)C1(O)C(=O)Nc2ccc(Br)cc21 (stereo unspecified),inconclusive: 1.42
7,COc1ccc(Nc2nc(C(C)(C)C)nc3c2nnn3Cc2ccccc2Cl)cc1OC,inconclusive: 1.19
8,Cc1nccn1CCCN1C(=O)CNC1=S,inconclusive: 1.35
9,Nc1nc(-c2cccnc2)nc(N2CCCCC2)n1,inconclusive: 1.34
10,COc1ccc2c(c1)CCc1sc(NC(=O)c3ccc(C)cc3)nc1-2,inconclusive: 1.17
11,O=C1C(Cl)=C(Nc2ccccc2O)C(=O)N1c1ccccc1,inconclusive: 1.46
12,CCOc1ccc(Oc2ccc(S(=O)(=O)N3CCOCC3)cc2N)cc1,inactive: 1.12
13,CC(C)=CC(=O)OCC(=O)Nc1cc(C)cc(C)c1,inactive: 0.86
14,CC(C)NC(=S)N/N=C/c1cccs1,inconclusive: 1.31
15,O=C1N/C(=N\N=C\c2ccccn2)SC1Cc1cccc(SC(F)F)c1 (stereo unspecified),inconclusive: 2.01
16,O=C(NCc1ccc(Cl)cc1)C1CCC(CNc2c(N3CCOCC3)c(=O)c2=O)CC1 (stereo unspecified),inactive: 1.07
17,Cc1cc2oc3c(c(=O)c2cc1C)C(c1cccc(Br)c1)N(Cc1ccco1)C3=O (stereo unspecified),inconclusive: 1.34
18,COCCNC(=O)/C(C#N)=C/c1cc(Br)c(O)c(OC)c1,inconclusive: 1.33
19,COc1ccc(OC2C(=O)N(CCc3ccc(OC)c(OC)c3)C2c2ccc3c(c2)OCO3)cc1 (stereo unspecified),inconclusive: 1.21
20,Cc1sc2ncn(CC(=O)Nc3ccccc3F)c(=O)c2c1-c1ccccc1,inactive: 0.95
21,c1ccc2nc3ccccc3nc2c1,inconclusive: 1.33
22,CCCCCCn1c(=O)[nH]c2nc3cc(N)c(C)cc3nc2c1=O,inconclusive: 1.43
